Data taken from PubChem BioAssay (NCI).
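Each compound was tested at five concentrations against cells in 96-well plates for 48 hours. GI50 marks 50% less growth. At the TGI there is no net growth.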

Each molecule was assayed on NCI-H322M lung (assay: growth of human tumour cells (NCI), 48 h).

Row | Compound | TGI [µM] | GI50 [µM]
1 | NC(=O)COc1c(Br)cc(Br)cc1Br | > 100 | 
2 | CCOC(=O)C1(C#N)C2(C#N)C(N)=NC(ON=C(C)C)(ON=C(C)C)C12C#N (configuration not stated) | > 100 | 
3 | C=C(C)[C@@H]1C/C=C(/CO)CC[C@H]2O[C@]2(C)CC/C=C(\C)CC1 | 29.3 | 11.9
4 | Cn1cnc([N+](=O)[O-])c1Sc1nnnn1C | > 100 | 
5 | C=C(C)[C@@H]1CC[C@]2(COCCCNCCCN)CC[C@]3(C)[C@H](CC[C@@H]4[C@@]5(C)CC[C@H](OCCCN)C(C)(C)[C@@H]5CC[C@]43C)[C@@H]12 | 1.71 | 0.939
6 | Cc1cc(C(=O)Nc2cc(Oc3ccc4nc(NC(=O)C5CC5)cn4n3)ccc2C)n(C)n1 | > 10 | > 10
7 | COc1cc(S(=O)(=O)Nc2ccc(-c3csc(N4C(=O)C(Cl)C4c4cccc(Oc5ccccc5)c4)n3)cc2)ccc1Cl (configuration not stated) | > 100 | 
8 | Cc1cc(Br)cc(C)c1NC(=O)C(=O)C(C(=O)c1ccncc1)C1OC(=O)c2ccccc21 (configuration not stated) | > 100 | 
9 | Cc1ccc(/C(O)=C/c2nc3cccnc3[nH]c2=O)cc1 | > 100 | 
10 | O=C1Nc2ccccc2/C1=C\c1cccc(/C=C2/C(=O)Nc3ccccc32)n1 | 2.54 | 1.07
11 | CC(=O)Oc1c2c(c(OC(C)=O)c3c1n(C(C)=O)c1ccccc1n3C(C)=O)n(C(C)=O)c1ccccc1n2C(C)=O | > 100 | 
12 | CCCCCCCN(CCCCCCC)C(=N)c1ccnc2ccccc12 | 3.01 | 1.51
13 | Cc1ccc(S(=O)(=O)/N=C2/N(C)CCCS2(=O)=O)cc1 | > 100 | 
14 | C/C(=N\NC(=O)CC#N)C(CN1CCCCC1)C(c1ccccc1)c1c(O)c2ccccc2oc1=O (configuration not stated) | > 100 | 
15 | C[N+](C)=c1ccc2nc3c(ccc4ccccc43)oc-2c1 | 29.3 | 
16 | COc1ccc(C2S/C(=C\c3cccc(OC)c3)C(=O)N2NC(=O)Cc2ccccc2)cc1 (configuration not stated) | > 100 | 
17 | O=C1OCC(c2ccc(O)cc2)=C1c1cc(O)c(O)c(O)c1 | > 100 | > 100
18 | CC(C)(C)c1ccc(O)c(C(c2ccc([N+](=O)[O-])cc2)c2cc(C(C)(C)C)ccc2O)c1 | 6.85 | 
19 | Nc1ncnc2c1ncn2C1OC(CO)C(O)C1NS(=O)(=O)c1ccccc1 (configuration not stated) | > 100 | 
20 | CC(C)(CN1CCOCC1)C(=O)/C=C/c1ccc(/C=C/C(=O)C(C)(C)CN2CCOCC2)cc1 | 2.97 | 
21 | C=C1C2C[C@@H]3OC4CC5O[C@]6(CC5OC4C(C)C3OC(=O)CC3CC[C@@H]4OC5C7OC8C[C@](CCC9CC(=C)[C@H](CCC(C[C@H]1C)O2)O9)(OC7C4O3)O[C@@H]85)C[C@@H]1O[C@@]2(CC(C)[C@@H]3OC(CC(=O)CCO)C(O)C[C@@H]3O2)CC(C)[C@@H]1O6 (some centres not stated) | 1.76 | 
22 | CC(CN1CC(=O)NC(=O)C1)N1CC(=O)NC(=O)C1 (configuration not stated) | > 750 | 
23 | Nc1nc2c(c(-c3ccccc3Cl)n1)COC/C2=C\c1ccccc1Cl | 30.8 | 

Row | Compound | TGI [µM] | GI50 [µM]
24 | CCN1C(=O)N(CC)C2C1NN=c1s/c(=C\c3cccs3)c(=O)n12 (configuration not stated) | > 100 | 0.618
25 | CC(C)NCC(O)c1ccc(O)c2ncccc12 (configuration not stated) | > 100 | 
26 | Cc1c(-c2coc(-c3ccccc3)n2)c(=O)n(-c2ccccc2)n1C | > 100 | 
27 | CC(CN(C)C)S(=O)(=O)c1ccc(-c2cnc(N)c(C(=O)Nc3ccccc3)n2)cc1 (configuration not stated) | > 73.8 | 11.1
28 | O=C1OC(c2ccccc2)(c2ccccc2)c2ccc3ccc(F)cc3c21 | > 100 | 
29 | O=c1nc(NC(c2ccccc2)(c2ccccc2)c2ccccc2)ccn1CCCl | 68.8 | 
30 | CC(C)(C)c1cc(C(=O)C2Cc3ccccc3C(=O)O2)cc(C(C)(C)C)c1O (configuration not stated) | 28.2 | 
31 | COC1=CC(=O)C2C(C1=O)[C@@H]1c3ccccc3OC(C)(C)[C@H]21 (some centres not stated) | > 100 | 
32 | Cc1nc(N)sc1C(=O)Nc1ncn[nH]1 | > 100 | 
33 | Cc1ccc(-c2c(C#N)[n+](=O)c3cc(F)c(F)cc3n2[O-])cc1 | 26.8 | 12.3
34 | COC(=O)[C@H]1[C@@H](O)[C@@]2(O)c3c(OC)cc(OC)cc3O[C@@]2(c2ccc3c(c2)OCO3)[C@@H]1c1ccccc1 | 0.193 | 
35 | COC1=CC(=O)c2c(cc(COP(N)(=O)N(CCCl)CCCl)n2C)C1=O (configuration not stated) | 8.47 | 
36 | CC(C(=O)NCCNC(=O)CCC(=O)N(C)O)C(=O)NCCNC(=O)CCC(=O)N(C)O | > 100 | 
37 | O=C(/C=C/c1ccc2c(c1)OCO2)NCCc1ccco1 | > 100 | 
38 | C[C@]12C(=O)C=CCC1=CC[C@@H]1[C@@H]2[C@H]2CC3(O)C(=O)O[C@@]4(C)[C@H]5C[C@@]6(C)[C@@H]7[C@@]2(O)[C@]1(OC[C@H]6C(=O)O5)O[C@]734 (some centres not stated) | > 100 | 
39 | COc1ccc(N2CN(C)CSC2=S)cc1 | > 100 | 
40 | c1ccc2cc(Cn3cc[n+](Cc4ccc5ccccc5c4)c3)ccc2c1 | 21.3 | 8.4
41 | Cc1nc2ccccc2c(=O)n1NC(=O)c1ccccc1[N+](=O)[O-] | > 100 | 
42 | CCNc1cc2oc(=O)cc(C(F)(F)F)c2cc1C | > 100 | 
43 | Cc1cc(C)nc(NS(=O)(=O)c2ccc(Nc3c4ccccc4nc4c(C(=O)Nc5ccc(S(=O)(=O)Nc6cc(C)on6)cc5)ccc(Cl)c34)cc2)n1 | 43 | 
44 | COc1cc2c3c(n(CCCCNC(=O)OC(C)(C)C)c(=O)c2cc1OC)-c1cc2c(cc1C3=O)OCO2 | > 100 | > 100
45 | O=S(=O)(c1ccccc1)c1nccs1 | > 100 | 
46 | CC1(C)Oc2ccc3c(=O)cc(-c4cccs4)oc3c2C1C(=O)O (configuration not stated) | > 100 | 
